# Test results reported in the supplement of paper PMC8728848.
# This is one part of the list.
# B1: MSMEG3662-2a (Mycobacterium smegmatis), A0QYH7_MYCS2 (protein)
# chain: MGDTLTAGQKLERGGSLQSGNGAYTLTLQDDGNLVLYARDKAVWSTGTNGQDVVRAEVQTDGNFVLYTAEKPVWHTDTKGKKEVKLVLQDDRNLVLYAKDGPAWSSKTDTTEPPPPAPEPEKEAEVAPAAAEEAAPAPVAEPAPAEPAPAAPPPAPPAPRTYTVVSGDTLWAIAERFYGDGSKYQQIADASGIANPDLIHPGQVLTIP
# What was measured:
# Test in all cases: glycan array binding signal (z-score within array); higher = stronger binding
# Settings in all cases: glycan notation: IUPAC condensed, linker removed
# Fuc(a1-2)Gal = target: Fuc(a1-2)Gal
# In short: (§1)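 The binding signal is a Z-score computed within each array and averaged over linkers. Arrays of the same protein sequence at different concentrations or buffers were also averaged together. Data originate from 3228 arrays in the Consortium for Functional Glycomics database, kept only where the protein sequence was available.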
# Fuc(a1-2)Gal(b1-3)GalNAc = target: Fuc(a1-2)Gal(b1-3)GalNAc
# In short: as §1
# [1] = target: Fuc(a1-2)Gal(b1-3)GalNAc(a1-3)[Fuc(a1-2)]Gal(b1-4)Glc
# In short: as §1
# [2] = target: Fuc(a1-2)Gal(b1-3)GalNAc(a1-3)[Fuc(a1-2)]Gal(b1-4)GlcNAc
# In short: as §1
# [3] = target: Fuc(a1-2)Gal(b1-3)GalNAc(b1-3)Gal
# In short: as §1
# [4] = target: Fuc(a1-2)Gal(b1-3)GalNAc(b1-3)Gal(a1-4)Gal(b1-4)Glc
# In short: as §1
# [5] = target: Fuc(a1-2)Gal(b1-3)GalNAc(b1-4)[Neu5Ac(a2-3)]Gal(b1-4)Glc
# In short: as §1
# Fuc(a1-2)Gal(b1-3)GlcNAc = target: Fuc(a1-2)Gal(b1-3)GlcNAc
# In short: as §1
# [6] = target: Fuc(a1-2)Gal(b1-3)GlcNAc(b1-2)Man(a1-3)[Fuc(a1-2)Gal(b1-3)GlcNAc(b1-2)Man(a1-6)]Man(b1-4)GlcNAc(b1-4)GlcNAc
# In short: as §1
# [7] = target: Fuc(a1-2)Gal(b1-3)GlcNAc(b1-2)Man(a1-3)[Fuc(a1-2)Gal(b1-3)GlcNAc(b1-2)Man(a1-6)]Man(b1-4)GlcNAc(b1-4)[Fuc(a1-6)]GlcNAc
# In short: as §1
# [8] = target: Fuc(a1-2)Gal(b1-3)GlcNAc(b1-3)Gal(b1-4)Glc
# In short: as §1
# [9] = target: Fuc(a1-2)Gal(b1-3)GlcNAc(b1-3)GalNAc
# In short: as §1
# [10] = target: Fuc(a1-2)Gal(b1-3)GlcNAc(b1-3)[Fuc(a1-2)Gal(b1-3)GlcNAc(b1-6)]GalNAc
# In short: as §1
# [11] = target: Fuc(a1-2)Gal(b1-3)GlcNAc(b1-3)[Gal(b1-4)GlcNAc(b1-6)]Gal(b1-4)Glc
# In short: as §1
# [12] = target: Fuc(a1-2)Gal(b1-3)GlcNAc(b1-3)[Neu5Ac(a2-6)Gal(b1-4)GlcNAc(b1-6)]Gal(b1-4)Glc
# In short: as §1
# [13] = target: Fuc(a1-2)Gal(b1-3)GlcNAc6S
# In short: as §1
# [14] = target: Fuc(a1-2)Gal(b1-3)[Fuc(a1-4)]GlcNAc
# In short: as §1
# [15] = target: Fuc(a1-2)Gal(b1-3)[Fuc(a1-4)]GlcNAc(b1-2)Man(a1-3)[Fuc(a1-2)Gal(b1-3)[Fuc(a1-4)]GlcNAc(b1-2)Man(a1-3)]Man(b1-4)GlcNAc(b1-4)GlcNAc
# In short: as §1
# [16] = target: Fuc(a1-2)Gal(b1-3)[Fuc(a1-4)]GlcNAc(b1-2)Man(a1-3)[Fuc(a1-2)Gal(b1-3)[Fuc(a1-4)]GlcNAc(b1-2)Man(a1-6)]Man(b1-4)GlcNAc(b1-4)[Fuc(a1-6)]GlcNAc(b1-4)[Fuc(a1-6)]GlcNAc
# In short: as §1
# [17] = target: Fuc(a1-2)Gal(b1-3)[Fuc(a1-4)]GlcNAc(b1-3)[Fuc(a1-3)[Gal(b1-4)]GlcNAc(b1-6)]Gal(b1-4)Glc
# In short: as §1
# [18] = target: Fuc(a1-2)Gal(b1-3)[Fuc(a1-4)]GlcNAc(b1-3)[Gal(b1-4)GlcNAc(b1-6)]Gal(b1-4)Glc
# In short: as §1
# [19] = target: Fuc(a1-2)Gal(b1-4)Fuc(a1-3)]GlcNAc(b1-2)Man(a1-3)[Fuc(a1-2)Gal(b1-4)[Fuc(a1-3)]GlcNAc(b1-2)Man(a1-6)]Man(b1-4)GlcNAc(b1-4)GlcNAc
# In short: as §1
# Fuc(a1-2)Gal(b1-4)Glc = target: Fuc(a1-2)Gal(b1-4)Glc
# In short: as §1
# Fuc(a1-2)Gal(b1-4)Glc6S = target: Fuc(a1-2)Gal(b1-4)Glc6S
# In short: as §1
# Fuc(a1-2)Gal(b1-4)GlcNAc = target: Fuc(a1-2)Gal(b1-4)GlcNAc
# In short: as §1
# [20] = target: Fuc(a1-2)Gal(b1-4)GlcNAc(b1-2)Man
# In short: as §1
# [21] = target: Fuc(a1-2)Gal(b1-4)GlcNAc(b1-2)Man(a1-3)[Fuc(a1-2)Gal(b1-4)GlcNAc(b1-2)Man(a1-6)]Man(b1-4)GlcNAc(b1-4)GlcNAc
# In short: as §1
# [22] = target: Fuc(a1-2)Gal(b1-4)GlcNAc(b1-2)Man(a1-3)[Fuc(a1-2)Gal(b1-4)GlcNAc(b1-2)Man(a1-6)]Man(b1-4)GlcNAc(b1-4)[Fuc(a1-6)]GlcNAc
# In short: as §1
# [23] = target: Fuc(a1-2)Gal(b1-4)GlcNAc(b1-2)[Fuc(a1-2)Gal(b1-4)GlcNAc(b1-4)]Man(a1-3)[Fuc(a1-2)Gal(b1-4)GlcNAc(b1-2)Man(a1-6)]Man(b1-4)GlcNAc(b1-4)GlcNAc
# In short: as §1
# [24] = target: Fuc(a1-2)Gal(b1-4)GlcNAc(b1-3)Gal(b1-4)GlcNAc
# In short: as §1
# [25] = target: Fuc(a1-2)Gal(b1-4)GlcNAc(b1-3)Gal(b1-4)GlcNAc(b1-2)Man(a1-3)[Fuc(a1-2)Gal(b1-4)GlcNAc(b1-3)Gal(b1-4)GlcNAc(b1-2)Man(a1-6)]Man(b1-4)GlcNAc(b1-4)GlcNAc
# In short: as §1
# [26] = target: Fuc(a1-2)Gal(b1-4)GlcNAc(b1-3)Gal(b1-4)GlcNAc(b1-3)Gal(b1-4)GlcNAc
# In short: as §1
# [27] = target: Fuc(a1-2)Gal(b1-4)GlcNAc(b1-3)GalNAc
# In short: as §1
# [28] = target: Fuc(a1-2)Gal(b1-4)GlcNAc(b1-3)[Fuc(a1-2)Gal(b1-4)GlcNAc(b1-6)]GalNAc
# In short: as §1
# [29] = target: Fuc(a1-2)Gal(b1-4)GlcNAc(b1-3)[Fuc(a1-3)[Gal(b1-4)]GlcNAc(b1-6)]Gal(b1-4)Glc
# In short: as §1
# [30] = target: Fuc(a1-2)Gal(b1-4)GlcNAc(b1-6)GalNAc
# In short: as §1
# [31] = target: Fuc(a1-2)Gal(b1-4)GlcNAc6S
# In short: as §1
# [32] = target: Fuc(a1-2)Gal(b1-4)[Fuc(a1-3)]GlcNAc
# In short: as §1
# [33] = target: Fuc(a1-2)Gal(b1-4)[Fuc(a1-3)]GlcNAc(b1-2)Man(a1-3)[Fuc(a1-2)Gal(b1-4)[Fuc(a1-3)]GlcNAc(b1-2)Man(a1-6)]Man(b1-4)GlcNAc(b1-4)[Fuc(a1-6)]GlcNAc
# In short: as §1
# [34] = target: Fuc(a1-2)Gal(b1-4)[Fuc(a1-3)]GlcNAc(b1-2)[Fuc(a1-2)Gal(b1-4)[Fuc(a1-3)]GlcNAc(b1-4)]Man(a1-3)[Fuc(a1-2)Gal(b1-4)[Fuc(a1-3)]GlcNAc(b1-2)Man(a1-6)]Man(b1-4)GlcNAc(b1-4)GlcNAc
# In short: as §1
# [35] = target: Fuc(a1-2)Gal(b1-4)[Fuc(a1-3)]GlcNAc(b1-3)Gal(b1-4)[Fuc(a1-3)]GlcNAc
# In short: as §1
# [36] = target: Fuc(a1-2)Gal(b1-4)[Fuc(a1-3)]GlcNAc(b1-3)Gal(b1-4)[Fuc(a1-3)]GlcNAc(b1-3)Gal(b1-4)[Fuc(a1-3)]GlcNAc
# In short: as §1
# [37] = target: Fuc(a1-2)Gal(b1-4)[Fuc(a1-3)]GlcNAc(b1-3)GalNAc
# In short: as §1
# [38] = target: Fuc(a1-2)Gal(b1-4)[Fuc(a1-3)]GlcNAc(b1-3)[Neu5Ac(a2-6)Gal(b1-4)GlcNAc(b1-6)]Gal(b1-4)Glc
# In short: as §1
# [39] = target: Fuc(a1-2)Gal3S(b1-4)GlcNAc
# In short: as §1
binder,measurement,setting,value
B1,glycan array binding signal (z-score),Fuc(a1-2)Gal,-0.236
same,glycan array binding signal (z-score),Fuc(a1-2)Gal(b1-3)GalNAc,-0.049
same,glycan array binding signal (z-score),[1],-0.104
same,glycan array binding signal (z-score),[2],-0.109
same,glycan array binding signal (z-score),[3],-0.15
same,glycan array binding signal (z-score),[4],-0.09
same,glycan array binding signal (z-score),[5],-0.163
same,glycan array binding signal (z-score),Fuc(a1-2)Gal(b1-3)GlcNAc,-0.14
same,glycan array binding signal (z-score),[6],-0.018
same,glycan array binding signal (z-score),[7],-0.05
same,glycan array binding signal (z-score),[8],-0.106
same,glycan array binding signal (z-score),[9],-0.084
same,glycan array binding signal (z-score),[10],-0.089
same,glycan array binding signal (z-score),[11],0.013
same,glycan array binding signal (z-score),[12],-0.147
same,glycan array binding signal (z-score),[13],0.12
same,glycan array binding signal (z-score),[14],-0.103
same,glycan array binding signal (z-score),[15],0.02
same,glycan array binding signal (z-score),[16],0.122
same,glycan array binding signal (z-score),[17],0.09
same,glycan array binding signal (z-score),[18],-0.006
same,glycan array binding signal (z-score),[19],0.182
same,glycan array binding signal (z-score),Fuc(a1-2)Gal(b1-4)Glc,0
same,glycan array binding signal (z-score),Fuc(a1-2)Gal(b1-4)Glc6S,-0.153
same,glycan array binding signal (z-score),Fuc(a1-2)Gal(b1-4)GlcNAc,-0.065
same,glycan array binding signal (z-score),[20],0.155
same,glycan array binding signal (z-score),[21],-0.14
same,glycan array binding signal (z-score),[22],0.018
same,glycan array binding signal (z-score),[23],-0.079
same,glycan array binding signal (z-score),[24],-0.14
same,glycan array binding signal (z-score),[25],0.094
same,glycan array binding signal (z-score),[26],-0.144
same,glycan array binding signal (z-score),[27],0.35
same,glycan array binding signal (z-score),[28],-0.023
same,glycan array binding signal (z-score),[29],-0.103
same,glycan array binding signal (z-score),[30],-0.084
same,glycan array binding signal (z-score),[31],-0.148
same,glycan array binding signal (z-score),[32],-0.153
same,glycan array binding signal (z-score),[33],-0.031
same,glycan array binding signal (z-score),[34],0.078
same,glycan array binding signal (z-score),[35],-0.021
same,glycan array binding signal (z-score),[36],-0.111
same,glycan array binding signal (z-score),[37],0.189
same,glycan array binding signal (z-score),[38],-0.168
same,glycan array binding signal (z-score),[39],-0.16
